Measured values: PubChem BioAssay AID1347430 (National Center for Advancing Translational Sciences (NCATS), 2020)
In all, about 91,000 compounds went through this assay and about 130 (0.14%) were called active. The shares of active, inactive and inconclusive entries below differ from those in the screen. The call rests on the fitted dose curve; in most records, active means well fitted inhibition curve with a large enough effect; inconclusive means small, poorly fitted or top-dose-only effect; inactive means flat fitted curve, though single readings scatter. A potency beside an inconclusive call is a rough fit, not a confirmed value.

test system: Uracil-DNA glycosylase; assay: Primary qHTS assay for inhibitors of Activation Induced Cytidine Deaminase (AID): UDG Counterscreen signal; details: FRET deamination/UDG coupled assay, UDG read, 4 h; activity change, negative = inhibition: at 115 µM (top of the series); further: nearly all actives have a fitted effect of over 65% in size
On the % scale 0 is the no-effect control and ±100 the full control effect; potency means the concentration at half of the fitted maximal effect; tags describe the fitted curve by direction and shape.

| SMILES | Potency | activity change, negative = inhibition |
| --- | --- | --- |
| Cc1ccccc1NC(=O)c1c(C)oc2ccc(O)c(CN3CCC(C)CC3)c12 | inconclusive: 100 µM [inhibitor, single point] | – |
| COc1ccc(NC(=O)Cn2c(=O)oc3cc(S(=O)(=O)N4CCCCC4C)ccc32)cc1 (stereo not given) | inconclusive: 89.1 µM [inhibitor, single point] | – |
| O=C(Cn1nc(-c2ccccc2)c2cnc3ccccc3c21)Nc1ccccc1 | inconclusive: 79.4 µM [inhibitor, single point] | – |
| COc1cc(/C=C/c2nc3ccccc3c(=O)n2-c2ccc(C(=O)O)cc2)ccc1O | – | inactive: -17.5% |
| COc1ccc(CCNC(=O)C2(c3cccs3)CCOCC2)cc1 | inconclusive: 89.1 µM [inhibitor, partial curve, poor fit] | – |
| CCCCCOc1c(Cl)cc(C(=O)N(Cc2ccc(C)o2)C2CCS(=O)(=O)C2)cc1Cl (stereo not given) | inconclusive: 89.1 µM [inhibitor, partial curve, poor fit] | – |
| N#Cc1nc(-c2ccc(F)cc2)oc1N1CCN(C(=O)c2ccccc2F)CC1 | inconclusive: 89.1 µM [inhibitor, single point] | – |
| CCC1CCCCN1C(=O)Cn1c(=O)n(-c2ccccc2)c(=O)c2sccc21 (stereo not given) | – | inactive: -2.11% |
| O=C(c1cccc(Cl)c1)N1CCN(CCc2ccncc2)CC1 | inconclusive: 100 µM [inhibitor, single point] | – |
| CCOc1ccc(CCNC(c2cccc(Cl)c2)c2nnc(-c3ccccc3)o2)cc1OCC (stereo not given) | inconclusive: 89.1 µM [inhibitor, partial curve, poor fit] | – |
| Oc1c(C(c2ccc(Cl)cc2)N2CCC3(CC2)OCCO3)sc2nc(-c3ccco3)nn12 (stereo not given) | – | inactive: -16.8% [at 57.5 µM] |
| COc1ccc(-c2nc3cccc(C)n3c2Nc2ccc3c(c2)OCCO3)cc1 | – | inactive: 4.27% |
| O=S1(=O)c2ccccc2N(Cc2cccc(C(F)(F)F)c2)c2ccccc21 | inconclusive: 35.5 µM [inhibitor, partial curve, poor fit] | – |
| N#Cc1nc(-c2cccc3ccccc23)oc1NCCN1CCOCC1 | inconclusive: 89.1 µM [inhibitor, single point] | – |
| O=C(Nc1nnc(S(=O)(=O)N2CCCc3ccccc32)s1)c1cccc(Cl)c1 | – | inactive: 3.86% |
| CCC(=O)N1c2ccccc2CC1C(=O)NCCc1ccc(OC)c(OC)c1 (stereo not given) | inconclusive: 79.4 µM [inhibitor, single point] | – |
| CN(C(=O)c1ccc(N)cc1)C1CCCCC1 | – | inactive: -1.25% |
| O=C1CC(C(=O)Nc2ccccc2)n2nc(SCc3ccccc3)nc2N1 (stereo not given) | inconclusive: 100 µM [inhibitor, single point] | – |
| CCN(CC)CCCNc1ncnc2c1cnn2-c1ccc(C)c(C)c1 | inconclusive: 100 µM [inhibitor, single point] | – |
| COc1ccc(Cn2c(SCC(=O)N(C)Cc3ccccc3)nc3ccccc32)cc1 | inconclusive: 56.2 µM [inhibitor, partial curve, poor fit] | – |
| N#Cc1c(N)sc2c1-c1ccccc1CC2 | inconclusive: 39.8 µM [inhibitor, full curve, poor fit] | – |
| CCOc1ccc(NC(=O)Cn2c(=O)n(CC(=O)NCc3ccccc3Cl)c(=O)c3sccc32)cc1 | inconclusive: 39.8 µM [inhibitor, partial curve, poor fit] | – |

| SMILES | Potency | activity change, negative = inhibition |
| --- | --- | --- |
| Cc1cc(Nc2ccc(C(=O)O)c(O)c2)n2ncnc2n1 | inconclusive: 89.1 µM [inhibitor, partial curve, poor fit] | – |
| CC(C)Cn1c(-c2ccc(S(=O)(=O)N3CCOCC3)cc2)csc1=Nc1cc(Cl)ccc1Cl | inconclusive: 79.4 µM [inhibitor, partial curve, poor fit] | – |
| O=S(=O)(c1ccc(-c2csc(NC3CCCC3)n2)cc1)N1CCCC1 | – | inactive: -7.99% |
| COC(=O)c1scc(-c2ccc(C)cc2)c1S(=O)(=O)N1CCN(c2ccccc2)CC1 | inconclusive: 89.1 µM [inhibitor, single point] | – |
| CCc1ccc(NC(=O)CN(c2ccc(Cl)cc2)S(=O)(=O)c2ccsc2C(=O)OC)cc1 | inconclusive: 89.1 µM [inhibitor, single point] | – |
| CCc1c(C)sc(NC(=O)c2ccc3c(c2)OCO3)c1C(=O)OC(C)C | – | inactive: -9.41% |
| O=C(Nc1ccc(Br)cc1F)c1cc(S(=O)(=O)NC2CCCCC2)ccc1F | inconclusive: 89.1 µM [inhibitor, single point] | – |
| CC(=O)c1ccc(NS(=O)(=O)c2c(C)nc3scc(C)n3c2=O)cc1 | – | inactive: -0.416% |
| CCC12CN3CC(CC)(CN(C1)C3c1ccc(C)cc1)C2=O (stereo not given) | – | inactive: -11.3% |
| CC1CCCN(c2nc(-c3ccccn3)nc3ccccc23)C1 (stereo not given) | – | inactive: -12.8% |
| CCC(C(=O)NCCc1ccccc1)n1nc(C)c2sc3ccccc3c2c1=O (stereo not given) | inconclusive: 89.1 µM [inhibitor, single point] | – |
| C#CCN1CCN(CCOc2ccc(Cl)cc2)CC1 | – | inactive: 9.98% |
| CC1=C(C(=O)OC2CCCC2)C(c2c(Cl)cccc2Cl)CC(=O)N1 (stereo not given) | – | inactive: -3.75% |
| CCOC(=O)c1ccccc1NC(=O)Cn1ncc2c1-c1ccccc1OC2 | inconclusive: 100 µM [inhibitor, single point] | – |
| CC(C)OCCCNc1ncnc2sc3c(c12)CCCC3 | inconclusive: 79.4 µM [inhibitor, single point] | – |
| CCC(=O)N1c2ccccc2CC1C(=O)NCCc1cc(OC)c(OC)c(OC)c1 (stereo not given) | inconclusive: 89.1 µM [inhibitor, single point] | – |
| CCCN(CCC)CCCNC(=O)C1CCCN(Cc2nc(-c3ccc(Cl)cc3)oc2C)C1 (stereo not given) | inconclusive: 100 µM [inhibitor, partial curve, poor fit] | – |
| Cc1ccc(-n2ncc3c(NC(C)c4ccccc4)ncnc32)cc1 (stereo not given) | inconclusive: 89.1 µM [inhibitor, single point] | – |
| CCOc1ccc(NC(=O)N2CCN(c3nnc(C)c4c(C)n(-c5ccccc5)nc34)CC2)cc1 | inconclusive: 25.1 µM [inhibitor, partial curve, poor fit] | – |
| CCCCn1c(=O)n(-c2cc(OC)ccc2OC)c(=O)c2c3c(sc21)CN(C(C)=O)CC3 | inconclusive: 89.1 µM [inhibitor, single point] | – |
| CC(NCc1ccc(C#N)cc1)c1ccc(F)cc1F (stereo not given) | – | inactive: 1.86% |
| CC1Cc2ccccc2N1C(=O)CSc1nc2ccc(NC(=O)COc3ccccc3)cc2s1 (stereo not given) | inconclusive: 89.1 µM [inhibitor, single point] | – |

| SMILES | Potency | activity change, negative = inhibition |
| --- | --- | --- |
| CC(C)(C)c1ccc(C(=O)NCCc2csc(-c3ccc(Cl)cc3)n2)cc1 | inconclusive: 50.1 µM [inhibitor, partial curve, poor fit] | – |
| CCCCCCCCc1ccc(-c2ccc(CCCC)cc2)nc1 | – | inactive: -1.53% |
| CCc1ccc(NC(=O)CSc2nc3ccccc3nc2Cc2ccccc2OC)cc1 | inconclusive: 100 µM [inhibitor, partial curve, poor fit] | – |
| Cc1cc(C)cc(NC(=O)N2CCN3CCCCC3C2)c1 (stereo not given) | inconclusive: 89.1 µM [inhibitor, single point] | – |
| O=C(Nc1cccc(C(F)(F)F)c1)c1cn2c3c(cccc3c1=Nc1cccc(C(F)(F)F)c1)CCC2 | – | inactive: -6.47% |
| COc1ccc(-c2[nH]c3c(c2-c2c(-n4cccc4)n(C)c(=O)n(C)c2=O)c(=O)n(C)c(=O)n3C)cc1 | inconclusive: 89.1 µM [inhibitor, single point] | – |
| Cc1nnc(SCc2nc(-c3ccc(Cl)cc3)no2)n1-c1ccc(F)cc1 | active: 79.4 µM | – |
| CCn1nc(C(=O)OC(C)C(=O)NCc2ccco2)c2ccccc2c1=O (stereo not given) | – | inactive: 1.24% |
| Cc1ccc(CN(C(=O)COc2ccc(C(C)C)cc2)C2CCS(=O)(=O)C2)o1 (stereo not given) | inconclusive: 89.1 µM [inhibitor, partial curve, poor fit] | – |
| COc1ccc(-c2cn3nc(N4CCC(C(=O)Nc5cccc(OC)c5)CC4)sc3n2)cc1 | – | inactive: 23.4% |
| Cc1ccc(C)n1-c1c(C(=O)NCCCN2CCN(c3ccc(F)cc3)CC2)sc2ncccc12 | inconclusive: 89.1 µM [inhibitor, single point] | – |
| CCC(C(=O)N1CCN(c2ccccc2F)CC1)n1nc(C)c2sc3ccccc3c2c1=O (stereo not given) | inconclusive: 50.1 µM [inhibitor, partial curve, poor fit] | – |
| CC(=O)Nc1ccc(NC(=O)c2cc(S(=O)(=O)N3CCOCC3)c(Cl)cc2Cl)cc1 | – | inactive: 67% |
| CC1=C(C(=O)OCC(C)C)C(c2ccc(OCc3ccccc3)cc2)N2C(=O)CCSC2=N1 (stereo not given) | inconclusive: 79.4 µM [inhibitor, partial curve, poor fit] | – |
| O=C(Nc1ccc2c(c1)N(C1CCCC1)C(=O)c1ccccc1S2)c1cccc(F)c1 | inconclusive: 17.8 µM [inhibitor, partial curve, poor fit] | – |
| CCCCc1cc(=O)oc2cc(OCC(=O)Nc3ccc(C(N)=O)cc3)ccc12 | – | inactive: 9.66% |
| Cc1cc(C)cc(NC(=O)CN(C)S(=O)(=O)c2ccc3[nH]c4c(c3c2)CCCC4)c1 | – | inactive: -25.9% [at 57.5 µM] |
| Cc1ccc(NS(=O)(=O)c2cc([N+](=O)[O-])ccc2N/N=C/c2ccc(C#N)cc2)c(C)c1 | – | inactive: -17.9% |
| COc1ccc(OC)c(S(=O)(=O)Nc2cc3c(C(C)=O)c(C)oc3c3ccccc23)c1 | inconclusive: 50.1 µM [inhibitor, partial curve, poor fit] | – |
| Cc1ccc(OCC(=O)N(Cc2ccco2)C2CCS(=O)(=O)C2)cc1 (stereo not given) | inconclusive: 100 µM [inhibitor, single point] | – |
| CCc1ccc(NC(=O)CSC2=Nc3ccccc3C3=NC(CC(=O)NCc4ccc5c(c4)OCO5)C(=O)N23)cc1 (stereo not given) | inconclusive: 100 µM [inhibitor, single point] | – |
